Source: PMC6919601, “Identification of Plasmodium dipeptidyl aminopeptidase allosteric inhibitors by high throughput screening” (PLoS ONE, 2019)
Hit rate of the full screen: of about 110,000 compounds, about 230 (0.21%) showed an effect of 50% or more. The list shows a part of the results.

Target: DPAP1 (Plasmodium falciparum, UniProt Q8IIJ9)
Assay: primary screen, percent inhibition; read by cleavage of a fluorogenic dipeptide substrate; higher = more effect of the substance
Design: species or system P. falciparum D10 trophozoite lysates; single well
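Further: 30 min substrate incubation versus DMSO and 10 µM JCP410 controls.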

DPAP1, sequence (Q8IIJ9 whole entry, looked up): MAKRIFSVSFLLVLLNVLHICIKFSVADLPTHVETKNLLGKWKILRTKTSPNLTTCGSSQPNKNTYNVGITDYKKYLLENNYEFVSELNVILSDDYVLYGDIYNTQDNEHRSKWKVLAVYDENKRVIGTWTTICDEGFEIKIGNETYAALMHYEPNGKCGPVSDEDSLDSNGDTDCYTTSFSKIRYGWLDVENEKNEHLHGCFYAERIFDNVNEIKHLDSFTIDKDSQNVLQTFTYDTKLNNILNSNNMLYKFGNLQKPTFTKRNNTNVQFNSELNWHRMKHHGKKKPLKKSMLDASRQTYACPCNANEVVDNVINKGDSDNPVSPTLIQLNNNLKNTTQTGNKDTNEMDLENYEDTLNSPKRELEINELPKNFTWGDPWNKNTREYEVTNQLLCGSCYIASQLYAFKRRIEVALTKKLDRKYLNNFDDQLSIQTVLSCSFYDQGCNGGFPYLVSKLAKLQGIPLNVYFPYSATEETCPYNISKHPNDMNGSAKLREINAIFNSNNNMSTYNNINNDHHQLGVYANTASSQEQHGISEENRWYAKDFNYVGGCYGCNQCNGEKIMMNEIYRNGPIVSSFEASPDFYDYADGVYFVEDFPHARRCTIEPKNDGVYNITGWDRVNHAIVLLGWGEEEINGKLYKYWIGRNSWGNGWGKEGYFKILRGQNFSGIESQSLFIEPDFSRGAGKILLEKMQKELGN

| Compound | % Inhibition @ 10 uM [%] |
| --- | --- |
| CCCc1cc(O)c2c(C)cc(=O)oc2c1 | 6.33 |
| O=C(CCNc1c(N2CCCC2)c(=O)c1=O)NCc1ccccc1 | 1.68 |
| CCCCSc1nc2c(c(=O)[nH]c(=O)n2C)n1C(C)C | -6.36 |
| CCN(CC)CCCNc1nc(C)cc(COC)c1C#N | -8.98 |
| O=C1CCSc2c1cccc2C(=O)NCc1cccc(Cl)c1 | -3.49 |
| COc1cccc(/C=N/NC(N)=S)c1 | -1.03 |
| COc1cc(CNCCC2CCOC(C)(C)C2)ccc1O (stereo not shown) | 3.59 |
| O=[N+]([O-])c1ccc2[nH]c(-c3ccccc3)cc2c1 | -6.99 |
| O=C(c1ccc(-c2nnc(-c3ccccc3)o2)cc1)N1CCCCCC1 | -1.26 |
| O=c1oc2ccccc2cc1-c1ccc([N+](=O)[O-])cc1 | -0.9 |
| CCOC(=O)C1=C(N)Oc2ccc3ccccc3c2C1c1ccncc1 (stereo not shown) | -4.93 |
| CCOc1ccccc1NC(=O)COc1c(C)ccc(C)c1C | 0.956 |
| C=CCN1CCN(c2ccncc2S(=O)(=O)N2CCCCC2)CC1 | 1.94 |
| Cc1ccc(NS(=O)(=O)c2ccccc2)cc1O | 3.91 |
| CCOc1ccc(-c2cc(N)n(S(=O)(=O)c3ccc(F)c(C)c3)n2)cc1 | -5.76 |
| COc1cc(NC(=O)COc2ccccc2C(C)C)c(OC)cc1Cl | -5.07 |
| Cc1ccccc1CN1CCC(CNc2ncnc3onc(C)c23)CC1 | -7.93 |
| CC(=O)c1coc2c1cc(O)c1ccccc12 | -3.48 |
| Cc1ccc(NS(=O)(=O)c2ccc(NC(=O)CCC(=O)O)cc2)cc1C | -4.26 |
| O=C(O)c1ccccc1C(=O)c1ccc(Oc2ccccc2)cc1 | 13.3 |
| COc1cccc(C(=O)N2CCN(Cc3ccccc3OC)CC2)c1 | 2.45 |
| CCCCC(=O)C1CCOC(C)(C)C1 (stereo not shown) | -2.44 |
| O=c1/c(=C/c2ccccc2Br)sc2nc(C3COc4ccccc4O3)nn12 (stereo not shown) | 3.54 |
| COC(=O)C1=C(C)N(C)C(C)=C(C(=O)OC)C1c1ccccc1C | -0.142 |
| COc1cccc(C2C(C#N)=C(N)OC3=C2C(=O)CC(c2ccccc2)C3)c1 (stereo not shown) | 6.18 |
| O=C(c1cc(-c2ccccc2)nc2ccccc12)N1CCCCC1 | 3.65 |

| Compound | % Inhibition @ 10 uM [%] |
| --- | --- |
| CC(C)c1ccc(-c2c(NCCC3=CCCCC3)c(=O)c2=O)cc1 | 0.589 |
| N#C/C(=C\c1ccc([N+](=O)[O-])cc1)c1nc(C2CC2)cs1 | -5.94 |
| CCOC(=O)N1CCC(NC(=O)c2cc(C(=O)NC3CCCC3)ccc2CO)CC1 | 0.708 |
| O=C1c2ccccc2-c2onc3ccc(N4CCCC4)c1c23 | 15.5 |
| COc1ccccc1[C@H](C)C[C@H](NC(=O)OCc1ccccc1)C(=O)NCC#N | -5.2 |
| CCCCC(=O)Nc1ccc(-c2nc3cc(Cl)ccc3o2)c(O)c1 | 2.38 |
| CCCC1=C(C(=O)OCC)C(c2ccc(F)cc2)C(C#N)=C(N)O1 (stereo not shown) | -1.93 |
| COC(=O)c1cc(S(=O)(=O)NCCc2sccc2C)c[nH]1 | -6.25 |
| COc1ccc(C(=O)CCC(=O)Nc2cccc(C)c2)cc1 | -1.26 |
| O=C(c1ccccc1Br)N1CCN(c2ccc(F)cc2)CC1 | 3.95 |
| COc1ccc(OC)c(C2C(C(=O)Nc3ccccc3)=C(C)Nc3ncnn32)c1 (stereo not shown) | -1.2 |
| Cc1ccc(/C=C(/C#N)c2nc(-c3ccccc3)cs2)o1 | -2.28 |
| CC(CCc1ccccc1)NC(=O)Cn1c2ccccc2c2cnnc(O)c21 (stereo not shown) | -2 |
| COc1ccc(C(=O)Nc2cc(OC)c(Cl)cc2OC)c(OC)c1 | 9.94 |
| Cc1cc(N(C)CCC#N)n2nc(C)c(-c3ccc(Cl)cc3)c2n1 | -6.4 |
| Cc1ccccc1-c1noc(CC#N)n1 | -3.85 |
| Cc1ccc(Cn2ccn(Cc3ccc(F)cc3)c(=O)c2=O)cc1 | 0.0845 |
| Cc1ccc(-c2cc3c4c(C)n(Cc5ccccc5)c(C)c4c(C)nn3c2)o1 | -2.92 |
| COC(=O)c1c(SC)nc2ccccc2c1OCc1ccc(F)cc1 | -6.5 |
| Cc1cc(N2CC(C)OC(C)C2)n2c(nc3ccccc32)c1C#N (stereo not shown) | 18.2 |
| Cc1cccc(Cn2c(C)c(CNCCc3ccc(S(N)(=O)=O)cc3)c(C(=O)O)c2C)c1 | 2.99 |
| COc1cc(C2C3=C(CC(C)(C)CC3=O)OC3=C2C(=O)CC(C)(C)C3)c(Br)cc1O | 7.76 |
| O=C(c1ccc(Cl)cc1)N1CCN(c2cccc(Cl)c2)CC1 | -3.27 |
| CN1CC2(C(=O)c3ccccc3)CN(C)CC(C(=O)c3ccccc3)(C1)C2 | -1.81 |
| COc1ccccc1C(=O)Nc1ccc2oc(-c3ccncc3)nc2c1 | 1.08 |
| COc1ccc(NC(=O)CSc2nc3ccc(OC)cc3cc2C#N)c(OC)c1 | -0.941 |

| Compound | % Inhibition @ 10 uM [%] |
| --- | --- |
| Cc1oc(-c2ccccc2Cl)nc1CSCC(=O)NC1CC1 | -2.85 |
| Cc1[nH]c2ccccc2c1C(=O)CSc1nc[nH]n1 | -5.11 |
| CC1=C(C)CC2C(=O)N(c3ccc(N4CCOCC4)cc3)C(=O)C2C1 (stereo not shown) | 0.0792 |
| O=C1c2ccccc2C(=O)N1Cc1cccc(O)c1 | 0.0152 |
| CNC(=O)CCc1nc(-c2ccc(OC)c(OC)c2)no1 | -6.85 |
| COc1ccc(C2=N/C(=C\c3ccc(C)cc3)C(=O)O2)c(Cl)c1 | -2.54 |
| Cc1ccc(S(=O)(=O)N(C)C)cc1N | -0.453 |
| C#CCOC(=O)/C(=C/c1ccco1)NC(=O)c1ccccc1 | -1.06 |
| Cc1cccc(C(=O)Nc2c(C(=O)N3CCCCCC3)cnn2-c2ccccc2)c1 | 4.12 |
| CCC1(O)CC(C)S(=O)(=O)C2CCCCC21 (stereo not shown) | 2.38 |
| Cc1cc(NC(=O)c2sc3nc4c(cc3c2N)CCCCCC4)no1 | 8.05 |
| COc1ccc(-c2nsc3c(N4CCNCC4)ncnc23)cc1 | 4 |
| c1ccc(CSc2nnc(-c3ccccc3)o2)cc1 | 3.47 |
| COc1ccc(CC(=O)N2N=C3CCC(C)CC3C2(O)C(F)(F)F)cc1 (stereo not shown) | -4.59 |
| O=CN1CCN(Cc2ccc(Cl)cc2)CC1 | 5.8 |
| N#Cc1c(-c2cccs2)cc(-c2ccccc2)nc1SCC(N)=O | 3.05 |
| COc1ccc(OC)c(C2=NOC(C(=O)N3CCOCC3)C2)c1 (stereo not shown) | -0.431 |
| Cc1ccsc1CN(C(=O)COc1ccc(Cl)cc1Cl)C1CCS(=O)(=O)C1 (stereo not shown) | 2.19 |
| CC(NC(=O)CCCc1nnc2n(C)c(=O)c3sccc3n12)c1ccccc1 (stereo not shown) | 0.868 |
| COc1cccc(C(=O)Nc2c3c(nn2-c2ccc(Cl)cc2)CS(=O)(=O)C3)c1OC | -3.67 |
| CCO/C(O)=C/C1=NC(C)(C)Cc2cc(C)c(C)cc21 | -4.91 |
| COc1ccc(C(=O)Nc2nc3nc(-c4ccccc4)cc(O)n3n2)cc1OC | 5.2 |
| CSc1ccc2c(c1)C(N1CCN(CCCO)CC1)Cc1ccc(O)cc1S2 (stereo not shown) | -2.56 |
| CCCN1CCC(N2CCC(O)(c3ccc(Br)cc3)CC2)CC1 | -3.6 |
| CCN1C(=O)c2cccc3c(NS(=O)(=O)c4ccccc4[N+](=O)[O-])ccc1c23 | -6.68 |
| O=C(Nc1cc(Cl)ccc1Cl)c1cccc(Br)c1 | -0.197 |

| Compound | % Inhibition @ 10 uM [%] |
| --- | --- |
| Cc1nc2nc(Cc3ccccc3)nn2c(C)c1Cl | 2.62 |
| Cc1cc(C)n(C2=NNC(N3CCOCC3)C=C2)n1 (stereo not shown) | 4.04 |
| O=C(OC(c1ccco1)c1nccc2ccccc12)c1ccccc1 (stereo not shown) | -3.33 |
| COc1ccc(Cn2c(=O)c3ccccc3n3c(-c4cc(Br)cs4)nnc23)cc1 | 1.68 |
| COc1ccc2nc3oc(C(=O)NCc4ccc(C)cc4)cc3cc2c1 | -1.54 |
| CCS(=O)CCSc1nc(-c2cccs2)cc(-c2ccccc2)c1C#N (stereo not shown) | 7.76 |
| COc1ccc(C2C3=C(O)CC(C)(C)CC3=NC(C)=C2C(=O)Nc2ccc(C)cn2)c(OC)c1 (stereo not shown) | -1.1 |
| Cc1noc(/C=C/N(C)C)c1S(=O)(=O)N1CCC(C(=O)NC2CCCCCC2)CC1 | -10.4 |
| CCOc1ccc(-n2nc3ccc(NC(=O)c4ccccc4F)cc3n2)cc1 | -1.28 |
| CCN(CC)S(=O)(=O)N1CCC(C(=O)NCCC2=CCCCC2)CC1 | -5.92 |
| CCOc1ccc(NC(=O)CN(c2ccccc2C)S(C)(=O)=O)cc1 | -9.2 |
| CCCc1cc(O)n2nc(NC(=O)c3ccc(C)cc3)nc2n1 | -1.31 |
| COc1ccc(CCn2c(SCc3ccccc3C)nc3nccnc3c2=O)cc1OC | -2.48 |
| CN1CCCN(CC2CCCCC2)CC1 | 1.38 |
| O=C(CS(=O)(=O)c1nc[nH]n1)NCCc1ccccc1 | 5.9 |
| Cc1c[n+](C)c(C)cc1-c1ccccc1 | -5.79 |
| O=C(O)CCCNC(=O)/C(=C/c1ccc2c(c1)OCO2)NC(=O)c1ccccc1Cl | 3.95 |
| O=C(NCC1CCCO1)c1cc(-c2ccncc2)nc2ccc(S(=O)(=O)N3CCOCC3)cc12 (stereo not shown) | 0.718 |
| Cc1ccc(NC(=O)CN2C(=O)c3ccccc3C2=O)c(C)c1 | 9.02 |
| Nc1ccc(-c2nc3ccccc3s2)cc1 | 6.09 |
| COc1ccc(S(=O)(=O)N2CCC(NC(=O)NC(C)c3ccncc3)CC2)cc1 (stereo not shown) | 2.29 |
| Cc1ccc(-n2nnnc2SCC(=O)Nc2nccs2)cc1Cl | 6.22 |
| Cc1cc(C)c2c(n1)sc1c(=O)n(Cc3ccco3)nnc12 | 2.54 |
| O=C1NC(=S)S/C1=C/c1ccc([N+](=O)[O-])o1 | 0.878 |
| CCOc1ccc2nc(N3CCC(C(=O)NC4CCCC(C)C4C)CC3)sc2c1 (stereo not shown) | 1.8 |
